Experimental data: a collection of fitness landscapes (doi:10.1038/s41467-024-54723-y)
The full ranking holds about 18,000 sequences; the median of “TetR repression strength (sort-seq, GFP reporter)” is about 0.23, and the highest 2% start at about 0.68. The list shows a part of the results.

target: TetR (class B, Tn10) (UniProt P04483); assay: TetR repression strength (sort-seq, GFP reporter) (relative to tetO2 = 1); higher = stronger repression; details: E. coli
Procedure, shortened: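 Repression strength was calculated by subtracting the read-weighted mean bin from the top bin index plus one and dividing by the unaltered operator's value. The plasmid library was low-copy in E. coli SIG10-MAX, with eight randomized operator positions between a constitutive promoter and sfGFP and constitutive TetR. Cultures grew 5 h at 37 °C in LB containing 50 µg/mL chloramphenicol before 10^6 cells were sorted by FACS into 13 fluorescence bins, each sequenced on Illumina. Three independent transformations were averaged for members having ≥30 reads in all replicates and a CV ≤0.5.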

Sequence of UniProt P04483 (P04483 whole entry): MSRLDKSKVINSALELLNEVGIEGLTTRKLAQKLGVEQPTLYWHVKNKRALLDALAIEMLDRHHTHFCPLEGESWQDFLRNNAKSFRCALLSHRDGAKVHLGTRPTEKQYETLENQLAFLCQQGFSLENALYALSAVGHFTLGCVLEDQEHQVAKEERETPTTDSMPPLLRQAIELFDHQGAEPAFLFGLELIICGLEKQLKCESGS

Sequence	TetR repression strength
TCCCTTTAAGTGATGGAGA	0.363
TCCCACAAAGTGGTCGAGA	0.294
TCCCTTAGAGTAGGTGAGA	0.144
TCCCCGTGAGTCCAGGAGA	0.185
TCCCAATCAGTAACTGAGA	0.278
TCCCGTTAAGTTCTGGAGA	0.256
TCCCGCATAGTCGAAGAGA	0.328
TCCCGGGTAGTGGGCGAGA	0.24
TCCCCCGTAGTGTGCGAGA	0.19
TCCCGAGCAGTGCCGGAGA	0.317
TCCCTGATAGTTAGGGAGA	0.233
TCCCGTCTAGTATGTGAGA	0.45
TCCCTTCGAGTTAGTGAGA	0.19
TCCCGAGGAGTGCGAGAGA	0.438
TCCCGGGTAGTTGGGGAGA	0.139
TCCCACCCAGTTTAGGAGA	0.122
TCCCGTTGAGTGGACGAGA	0.128
TCCCGGAAAGTAGTGGAGA	0.122
TCCCCAACAGTTGTTGAGA	0.452
TCCCGGGAAGTGTCAGAGA	0.181
TCCCATCAAGTGTGGGAGA	0.0444
TCCCAAGGAGTATTGGAGA	0.284
TCCCAGGAAGTGAATGAGA	0.104
TCCCCTCGAGTGTGAGAGA	0.124
TCCCGTAAAGTTTCTGAGA	0.187
TCCCATTAAGTCTTAGAGA	0.294

Sequence	TetR repression strength
TCCCCAAGAGTAAACGAGA	0.291
TCCCTATAAGTCATTGAGA	0.498
TCCCAACTAGTGTAGGAGA	0.146
TCCCGCTTAGTCGTTGAGA	0.0178
TCCCATCGAGTAGGGGAGA	0.118
TCCCCGAGAGTGCATGAGA	0.128
TCCCTACTAGTAATGGAGA	0.415
TCCCATTCAGTCCTGGAGA	0.207
TCCCCTTAAGTTTATGAGA	0.311
TCCCTGTGAGTGTTAGAGA	0.199
TCCCGCACAGTGCGTGAGA	0.117
TCCCTGGCAGTATGTGAGA	0.194
TCCCAGCGAGTGACTGAGA	0.0946
TCCCATGAAGTAGTTGAGA	0.0364
TCCCGAGGAGTAGACGAGA	0.227
TCCCGTACAGTTAAGGAGA	0.316
TCCCTTGGAGTAGTAGAGA	0.559
TCCCGGGTAGTCCTCGAGA	0.159
TCCCAATAAGTATCAGAGA	0.0222
TCCCCTGCAGTGAAGGAGA	0.2
TCCCTTGTAGTTCGTGAGA	0.575
TCCCTTATAGTACTTGAGA	0.13
TCCCAAGGAGTGATGGAGA	0.125
TCCCAAGTAGTGGAGGAGA	0.0694
TCCCATGAAGTTGGGGAGA	0.261
TCCCACTGAGTGGTTGAGA	0.0824

Sequence	TetR repression strength
TCCCAAGGAGTGGTAGAGA	1.18
TCCCGGTGAGTGAGGGAGA	0.205
TCCCCCATAGTCTGTGAGA	0.325
TCCCGGTAAGTGTTCGAGA	0.139
TCCCACGTAGTGGCCGAGA	0.407
TCCCTCATAGTGGCGGAGA	0.231
TCCCCTAGAGTATTAGAGA	0.207
TCCCTAATAGTTGGGGAGA	0.246
TCCCTATAAGTAGTTGAGA	0.567
TCCCTGGGAGTGTGTGAGA	0.182
TCCCGTACAGTGCATGAGA	0.179
TCCCGTGAAGTGCCGGAGA	0.137
TCCCGGCCAGTCCCGGAGA	0.17
TCCCACTGAGTTACAGAGA	0.208
TCCCTGCCAGTTTCTGAGA	0.415
TCCCTTCAAGTACACGAGA	0.152
TCCCCCGGAGTGACTGAGA	0.262
TCCCGAGAAGTCCGAGAGA	0.474
TCCCTACCAGTGGAAGAGA	1.24
TCCCATCTAGTAGGTGAGA	0.195
TCCCAAATAGTGGGTGAGA	0.183
TCCCAATTAGTTAAGGAGA	0.518
TCCCGGTCAGTCTGAGAGA	0.207
TCCCTGGAAGTTAAAGAGA	0.248
TCCCCCAGAGTTGGAGAGA	0.318
TCCCTTGCAGTGGGGGAGA	0.0874

Sequence	TetR repression strength
TCCCGGAGAGTGGGTGAGA	0.294
TCCCGTAGAGTTTCGGAGA	0.121
TCCCTTAAAGTGCGGGAGA	0.265
TCCCCTTCAGTGTCTGAGA	0.327
TCCCCGCCAGTATTTGAGA	0.329
TCCCGAAAAGTAGGAGAGA	0.311
TCCCAGTCAGTTTGTGAGA	0.204
TCCCCGTCAGTCGCTGAGA	0.432
TCCCAAATAGTGCTTGAGA	0
TCCCTCAAAGTATTTGAGA	0.272
TCCCAATGAGTGACAGAGA	0.514
TCCCATATAGTAGTGGAGA	0.117
TCCCGTGCAGTGAACGAGA	0.31
TCCCGTCAAGTGCTAGAGA	0.266
TCCCACTTAGTAAGTGAGA	0.141
TCCCGAAGAGTTGCTGAGA	0.486
TCCCCCGGAGTCCGAGAGA	0.413
TCCCATGCAGTGGAAGAGA	0.281
TCCCCGCAAGTGCGTGAGA	0.343
TCCCTAGTAGTCATCGAGA	0.256
TCCCGGACAGTTGTTGAGA	0.265
TCCCAAATAGTCGTGGAGA	0.415
TCCCCTCAAGTAATTGAGA	0.155
TCCCACATAGTCTTTGAGA	0.244
